# Measured values reported in PubChem BioAssay (Tox21).
# Several values for one entry are separate records, joined by “and”; a condition that tells them apart may be missing. Identical values can stand only once. Inconclusive results, whose numbers are uncertain, are shown with a selection of clear calls. For some of these results: Where the call is inconclusive, the potency comes from a doubtful curve fit. Activity calls are given as the source filed them. Unless noted, the call rests on the fitted dose curve; in most records, active means well fitted curve in the direction sought with a large enough effect in the repeat runs; inconclusive means weak or mixed curves; inactive means no such curve, though single readings can be large; an effect the other way counts as inactive or inconclusive.
# Experiments:
# [1] = target: Progesterone receptor (Homo sapiens) (UniProt P06401); assay: qHTS assay to identify small molecule antagonists of the progesterone receptor (PR) signaling pathway (AID 1346795; active means well fitted inhibition curve with a large enough effect in the signal ratio in the repeat runs, not every such curve was filed as active; inconclusive means weak or mixed curves; the % refers to the signal ratio; further: potency means the concentration at half of the fitted maximal effect; on activity change, negative = inhibition: on the % scale 0 is the no-effect control and ±100 the full control effect); details: PR-UAS-bla HEK293T, beta-lactamase FRET ratio, 16 h; activity change, negative = inhibition: at 92.4 µM (top of the series) unless noted
# Chain of UniProt P06401 (P06401 whole entry, looked up): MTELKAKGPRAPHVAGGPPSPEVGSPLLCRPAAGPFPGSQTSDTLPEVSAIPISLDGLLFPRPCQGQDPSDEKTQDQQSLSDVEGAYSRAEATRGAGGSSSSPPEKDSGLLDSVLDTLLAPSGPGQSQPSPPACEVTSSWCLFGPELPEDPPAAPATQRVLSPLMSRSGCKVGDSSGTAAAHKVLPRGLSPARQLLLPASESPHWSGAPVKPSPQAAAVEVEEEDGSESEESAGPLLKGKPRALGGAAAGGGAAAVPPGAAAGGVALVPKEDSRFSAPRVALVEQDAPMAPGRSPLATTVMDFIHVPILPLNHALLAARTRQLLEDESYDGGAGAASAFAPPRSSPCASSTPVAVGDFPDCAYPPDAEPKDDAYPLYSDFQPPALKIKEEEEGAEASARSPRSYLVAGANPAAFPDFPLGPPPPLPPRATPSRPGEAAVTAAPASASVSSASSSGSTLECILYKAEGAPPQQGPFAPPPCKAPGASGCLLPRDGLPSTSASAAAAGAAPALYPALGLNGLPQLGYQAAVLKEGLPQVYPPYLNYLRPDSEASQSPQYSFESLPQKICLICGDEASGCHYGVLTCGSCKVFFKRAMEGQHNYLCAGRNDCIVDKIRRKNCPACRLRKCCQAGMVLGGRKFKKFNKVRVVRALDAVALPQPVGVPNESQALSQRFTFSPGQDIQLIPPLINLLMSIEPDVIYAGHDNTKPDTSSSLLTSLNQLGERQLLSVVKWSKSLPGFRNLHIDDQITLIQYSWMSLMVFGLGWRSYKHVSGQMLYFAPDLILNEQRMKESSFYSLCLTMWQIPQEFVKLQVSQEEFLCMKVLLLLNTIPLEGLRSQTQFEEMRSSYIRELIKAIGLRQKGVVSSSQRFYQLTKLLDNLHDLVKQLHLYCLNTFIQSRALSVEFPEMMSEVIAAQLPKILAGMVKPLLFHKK
# Outline: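 Beta-lactamase reporter, HEK293T PR-UAS-bla line; 2% charcoal-stripped FBS; 6 hr pre-incubation, 37C/5% CO2. Compound + R5020 1 nM final, 16 hr. LiveBLAzer B/G FRET substrate, 2 hr RT; fluorescence intensity read.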
# [2] = qHTS assay to identify small molecule agonists of the progesterone receptor (PR) signaling pathway - cell viability counter screen (AID 1346799; calls by dose curve; further: potency means the concentration at half of the fitted maximal effect; nearly all actives have a fitted effect of over 45% in size)
# Outline: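 HEK293T PR-UAS-bla, 3,000 cells/well, 2% charcoal-stripped FBS; 6 h settle, compound 16 h at 37C/5% CO2; LiveBLAzer 2 h RT, then CellTiter-Glo 30 min RT, luminescence read.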
# [3] = qHTS assay to identify small molecule agonists of the TGF-beta/Smad signaling pathway (AID 1346859; active means well fitted activation curve with a large enough effect in the signal ratio in the repeat runs, not every such curve was filed as active; inconclusive means weak or mixed curves; the % refers to the signal ratio; further: potency means the concentration at half of the fitted maximal effect; on activation: on the % scale 0 is the no-effect control and ±100 the full control effect); details: SBE-bla HEK293T, TGF-beta/Smad beta-lactamase reporter, 5 h; activation: at 76.8 µM (top of the series)
# Outline: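 Read-out: fluorescence at 460 and 530 nm (405 nm excitation) after a 2 hr room-temperature incubation with beta-lactamase FRET substrate. SBE-bla HEK 293T cells had been treated with test compounds for 5 hr at 37 C.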
# [4] = qHTS assay to identify small molecule antagonists of the TGF-beta/Smad signaling pathway (AID 1346924; active means well fitted inhibition curve with a large enough effect in the signal ratio in the repeat runs, not every such curve was filed as active; inconclusive means weak or mixed curves; the % refers to the signal ratio; further: potency means the concentration at half of the fitted maximal effect); details: SBE-bla HEK293T, TGF-beta/Smad reporter, beta-lactamase ratio; activity, negative = inhibition: at 76.8 µM (top of the series) unless noted
# Outline: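 SBE-bla HEK 293T cells were plated overnight, then received compound in DMSO plus TGF-beta1 (added as a 0.25 ng/mL solution) and were incubated 5 h at 37 C. Beta-lactamase reporter activity was read after 2 h at room temperature with LiveBLAzer B/G FRET substrate (ex 405, em 460/530 nm).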
# [5] = Caspase-3/7 induction in CHO-K1 cells by small molecules, qHTS cell viability counter screen (AID 1346979); further: potency means the concentration at half of the fitted maximal effect; nearly all actives have a fitted effect of over 35% in size
# Outline: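 CHO-K1 wt, 1,500 cells/well; 5hr pre-incubation 37C/5% CO2; compound pin transfer (DMSO); 16hr exposure; CellTiter-Fluor added, 1hr, fluorescence read.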
# [6] = qHTS assay to identify small molecule agonists of the TGF-beta/Smad signaling pathway - cell viability counter screen (AID 1346829); further: top concentration of the series differs between compounds; on the % scale 0 is the no-effect control and ±100 the full control effect; nearly all actives have a fitted effect of over 45% in size
# Outline: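 SBE-bla HEK 293T cells plated overnight, compound exposure 5 hr at 37 C. Viability read in the same wells by CellTiter-Glo luminescence after 30 min at room temperature, following the beta-lactamase read.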
# [7] = qHTS assay to identify small molecule antagonists of the progesterone receptor (PR) signaling pathway - cell viability counter screen (AID 1346798); further: nearly all actives have a fitted effect of over 50% in size; further: potency means the concentration at half of the fitted maximal effect
# Outline: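 Luminescence readout (CellTiter-Glo, 30 min, RT) of viability in PR-UAS-bla HEK293T cells exposed to compound and R5020 agonist for 16 hr at 37C, 5% CO2; run in the same wells as the beta-lactamase reporter read.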
# [8] = target: Thyrotropin-releasing hormone receptor (Homo sapiens) (UniProt P34981); assay: qHTS assay to identify small molecule antagonists of the thyrotropin-releasing hormone receptor (TRHR) signaling pathway (AID 1346877; active means well fitted inhibition curve with a large enough effect in the repeat runs, not every such curve was filed as active; inconclusive means weak or mixed curves; further: on the % scale 0 is the no-effect control and ±100 the full control effect)
# Chain of UniProt P34981 (P34981 whole entry, looked up): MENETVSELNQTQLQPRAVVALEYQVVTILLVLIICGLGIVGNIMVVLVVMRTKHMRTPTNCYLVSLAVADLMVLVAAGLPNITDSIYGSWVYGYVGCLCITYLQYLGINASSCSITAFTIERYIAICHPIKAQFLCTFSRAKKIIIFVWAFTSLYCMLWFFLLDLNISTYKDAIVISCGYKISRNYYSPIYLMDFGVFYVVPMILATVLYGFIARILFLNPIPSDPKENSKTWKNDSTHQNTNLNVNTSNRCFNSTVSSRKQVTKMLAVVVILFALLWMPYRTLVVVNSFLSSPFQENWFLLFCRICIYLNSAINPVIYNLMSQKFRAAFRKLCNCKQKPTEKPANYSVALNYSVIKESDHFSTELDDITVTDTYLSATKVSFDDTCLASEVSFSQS
# Outline: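 Following an 18 h incubation at 37 °C and a 2 h calcium dye load, TRHR-HEK293 cells were exposed to compound (5 min, room temperature) and challenged with TRH, 1 nM final.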
# [9] = Human pregnane X receptor (PXR) small molecule agonists, qHTS cell viability counter screen (AID 1346977); further: nearly all actives have a fitted effect of over 50% in size; further: potency means the concentration at half of the fitted maximal effect
# Outline: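 Fluorescence read-out (CellTiter-Fluor) of viability in PXR-Luc HepG2 cells, multiplexed with the luciferase agonist read. Compounds in DMSO added after 5hr plating; 24hr total exposure at 37C, 5% CO2.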
# [10] = qHTS assay to identify small molecule antagonists of the TGF-beta/Smad signaling pathway - cell viability counter screen (AID 1346824); further: potency means the concentration at half of the fitted maximal effect; nearly all actives have a fitted effect of over 50% in size
# Outline: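 Cytotoxicity counter-screen run in the same wells as the beta-lactamase Smad reporter read: CellTiter-Glo luminescence after 30 min at room temperature. HEK 293T SBE-bla cells had 5 hr compound exposure at 37 C with TGF-beta1 (0.25 ng/mL stock).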
# Tags describe the fitted curve by direction and shape or compound fluorescence and quenching.
structure (smiles),measurement,setting,value
C=CCN1C[C@H](C)N([C@H](c2ccc(C(=O)N(CC)CC)cc2)c2cccc(OC)c2)C[C@H]1C,Potency,[1],inactive
same,Potency,[2],"inconclusive: 13.3 µM [rising, single point]"
same,Potency,[3],"inconclusive: 13.4 µM [rising, partial curve]"
CC1(C)C(C=C(Cl)Cl)C1C(=O)OC(C#N)c1ccc(F)c(Oc2ccccc2)c1 (stereo not given),Potency,[1],active: 13.7 µM
same,"activity, negative = inhibition",[4],inconclusive: -9.52%
same,Potency,[5],"inconclusive: 77 µM [cytotoxic, single point]"
O=C(O)c1ccc2[nH]cc(CCCCN3CC=C(c4ccccc4)CC3)c2c1,Potency,[1],inactive
same,"activity, negative = inhibition",[4],inconclusive: -0.0133% [at 35.3 µM]
CC1(C)[C@H](C(=O)O[C@H](C#N)c2cccc(Oc3ccccc3)c2)[C@@H]1/C=C(\Cl)C(F)(F)F,Potency,[1],"inconclusive: 20.1 µM [falling, partial curve] and inconclusive: 21.7 µM [falling, partial curve]"
same,Potency,[2],"inconclusive: 5.45 µM [rising, partial curve, poor fit]"
CC(C)=CCOc1c2occc2cc2ccc(=O)oc12,Potency,[1],"inconclusive: 16.8 µM [rising, partial curve, poor fit]"
same,Potency,[6],inactive
COC1=CC(=O)O[C@@H](CCc2ccccc2)C1,Potency,[1],"inconclusive: 40.1 µM [rising, partial curve]"
same,Potency,[3],"inconclusive: 20.3 µM [rising, partial curve, poor fit]"
same,Potency,[5],"inconclusive: 35.8 µM [rising, partial curve]"
CNP(=O)(OC)Oc1ccc(C(C)(C)C)cc1Cl (stereo not given),Potency,[1],"inconclusive: 61.1 µM [falling, partial curve]"
same,Potency,[7],"inconclusive: 48.6 µM [rising, partial curve]"
same,Potency,[2],"inconclusive: 77 µM [rising, single point]"
same,Potency,[5],"inconclusive: 77 µM [cytotoxic, single point]"
Nc1c(Cl)c(Cl)nc(C(=O)O)c1Cl,"activity change, negative = inhibition",[1],inconclusive: -47.3%
same,"activity, negative = inhibition",[4],inconclusive: -16.9%
CN(C)CCc1c[nH]c2ccccc12,Potency,[1],"inconclusive: 121 µM [falling, single point]"
same,Potency,[2],"inconclusive: 85.7 µM [cytotoxic, partial curve, poor fit]"
same,Potency,[8],inactive
same,Potency,[9],"inconclusive: 121 µM [cytotoxic, single point]"
COP(=S)(NC(C)C)Oc1ccc(C)cc1[N+](=O)[O-] (stereo not given),Potency,[1],active: 7.7 µM
same,Potency,[2],"inconclusive: 30.6 µM [rising, full curve]"
Cc1cc(C)c(C(=O)P(=O)(C(=O)c2c(C)cc(C)cc2C)c2ccccc2)c(C)c1,Potency,[1],inactive
COC(=O)c1sccc1S(=O)(=O)NC(=O)Nc1nc(C)nc(OC)n1,"activity change, negative = inhibition",[1],inconclusive: 11.4%
same,Potency,[7],inactive
same,Potency,[2],"inconclusive: 31.3 µM [cytotoxic, single point]"
CCc1cccc(C)c1N(C(=O)CCl)[C@@H](C)COC,Potency,[1],"inconclusive: 5.45 µM [rising, full curve, poor fit]"
same,Potency,[4],inconclusive: 49 µM
same,Potency,[9],inactive
same,Potency,[5],"inconclusive: 77 µM [cytotoxic, single point]"
c1ccc(P(c2ccccc2)c2ccccc2)cc1,Potency,[1],inconclusive: 62.3 µM
same,"activity change, negative = inhibition",[1],inconclusive: -26.2%
COP(N)(=S)Oc1ccccc1C(=O)OC(C)C (stereo not given),"activity change, negative = inhibition",[1],inconclusive: -35.3%
same,Potency,[10],"inconclusive: 0.155 µM [cytotoxic, single point]"
same,Potency,[3],inactive
